Results taken from PMC4336329 (PLoS ONE, 2015).
The whole screen tested about 310,000 compounds, of which about 2,200 (0.71%) showed an effect of 50% or more. The effect is printed as a negative number. This is one part of the list.

biological target: human ether-à-go-go-related gene (hERG) potassium channel (human, UniProt Q12809); assay: primary screen, population patch clamp on CHO cells stably expressing hERG
Sequence (Q12809 whole entry, looked up): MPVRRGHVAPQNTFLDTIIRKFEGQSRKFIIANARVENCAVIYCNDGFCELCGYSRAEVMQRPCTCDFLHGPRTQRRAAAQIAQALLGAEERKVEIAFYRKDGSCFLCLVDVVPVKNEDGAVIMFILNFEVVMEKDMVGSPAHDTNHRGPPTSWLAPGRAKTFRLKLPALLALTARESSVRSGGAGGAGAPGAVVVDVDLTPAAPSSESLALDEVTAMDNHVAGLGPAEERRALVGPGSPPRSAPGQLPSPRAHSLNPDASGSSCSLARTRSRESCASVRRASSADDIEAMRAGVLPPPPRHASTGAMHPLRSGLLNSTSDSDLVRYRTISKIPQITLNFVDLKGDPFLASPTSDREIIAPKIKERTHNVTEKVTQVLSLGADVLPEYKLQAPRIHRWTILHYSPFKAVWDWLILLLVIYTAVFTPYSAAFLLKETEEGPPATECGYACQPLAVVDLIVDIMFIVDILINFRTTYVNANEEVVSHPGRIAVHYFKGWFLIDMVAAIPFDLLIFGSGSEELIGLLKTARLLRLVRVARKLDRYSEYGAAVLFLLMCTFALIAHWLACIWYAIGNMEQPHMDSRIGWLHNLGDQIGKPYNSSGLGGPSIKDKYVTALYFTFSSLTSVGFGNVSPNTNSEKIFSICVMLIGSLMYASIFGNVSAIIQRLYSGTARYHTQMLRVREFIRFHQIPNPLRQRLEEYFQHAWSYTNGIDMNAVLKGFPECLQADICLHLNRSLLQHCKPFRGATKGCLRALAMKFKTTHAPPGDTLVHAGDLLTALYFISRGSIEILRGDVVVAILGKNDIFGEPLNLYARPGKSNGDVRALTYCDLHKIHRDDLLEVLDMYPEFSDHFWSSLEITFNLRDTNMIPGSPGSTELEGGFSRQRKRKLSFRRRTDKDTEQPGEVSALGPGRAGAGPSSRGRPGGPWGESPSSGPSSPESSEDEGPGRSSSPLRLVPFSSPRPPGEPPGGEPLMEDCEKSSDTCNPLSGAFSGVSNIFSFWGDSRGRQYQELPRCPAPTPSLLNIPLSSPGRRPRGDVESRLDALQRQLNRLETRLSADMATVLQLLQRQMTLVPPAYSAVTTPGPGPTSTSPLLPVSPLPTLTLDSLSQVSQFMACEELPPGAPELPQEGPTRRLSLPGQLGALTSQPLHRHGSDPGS

Row | SMILES | hERG current change (%, negative = inhibition) at 1uM [%]
1 | COc1ccc(OC)c(CCNC(=O)CS(=O)(=O)Cc2nc(-c3ccc(C)cc3)oc2C)c1 | -11.3
2 | N#Cc1cc(N)c(Nc2ccccc2)cc1C#N | 7.02
3 | O=C(CCCCCBr)N1CCC(CC2CC(c3cccc(Br)c3)=NO2)(C(=O)NCC2CCCCC2)CC1 (centres unmarked) | -31.9
4 | COC(=O)/C=c1/s/c(=C(\C#N)C(=O)NCc2ccco2)n(-c2ccccc2)c1=O | 14.8
5 | CCCCCCc1c(C)c2ccc(OCC(=O)N3CCC[C@H]3C(=O)O)c(C)c2oc1=O | 7.42
6 | CCc1nnc(NC(=O)CSc2nnc(C3CCCCC3)n2-c2ccccc2)s1 | 6.16
7 | O=C1C=C(c2cc(Cl)cc(Cl)c2)C[C@@H](c2ccc3c(c2)OCO3)C1 | 26.4
8 | Cc1nc(SCC(=O)N2CCN(c3ccccc3)CC2)n[nH]1 | 7.64
9 | COc1ccc(CCN2C(=O)c3cccc4c(C(=O)N5CCCCC5)ccc(c34)C2=O)cc1OC | 12
10 | CC1CCN(S(=O)(=O)N2CCC(C(=O)NCCC3=CCCCC3)CC2)CC1 | 11.6
11 | O=C(/C=C/Nc1cccc(C(F)(F)F)c1)C(F)(F)F | 1.89
12 | COc1ccc2oc(=O)c(C(=O)Nc3ccccc3C)cc2c1 | 11.4
13 | Cc1cc2ncn(CCC(=O)NC(C)(C)C)c2cc1C | 8.99
14 | CC(C)(C)c1cc[n+](C2=C([O-])c3ccccc3C(=O)/C2=N\S(=O)(=O)c2ccccc2)cc1 | 9.02
15 | CCC(C)c1c(O)nc(SCC(=O)N2CCCCC2)[nH]c1=O (centres unmarked) | 12.6
16 | CCCC(=O)NNC(=O)CCC(=O)Nc1ccccc1Cl | 18.3
17 | CN1CCN(C(=O)c2ccccc2NC(=O)Cc2ccccc2)CC1 | -1.37
18 | CCOc1ccc(N/C=C/C(=O)c2ccc(OC)cc2)c([N+](=O)[O-])c1 | 19.1
19 | O=[N+]([O-])c1ccc(N2CCN(c3ccc(Cl)nn3)CC2)c(Cl)c1 | -9.29

Row | SMILES | hERG current change (%, negative = inhibition) at 1uM [%]
20 | O=C(C1CCN(Cc2ccc(F)cc2)CC1)N(CCO)Cc1ccccc1 | 10.4
21 | Cc1cc(/C=N/NC(=O)c2ccc(O)cc2)c(C)n1C1CC1 | 19.7
22 | Cc1cc(C)c(OCC(=O)NCCCn2nc(C)cc2C)c(C)c1 | 6.92
23 | CCN(CC(=O)Nc1c(F)cccc1F)C(=O)C1(c2ccccc2)CC1 | -1.16
24 | O=C(CSc1ncccn1)NC(=O)c1ccccc1 | 13.3
25 | Cc1[nH]c2ccccc2c1/C=N/Nc1nc(N2CCCCC2)nc(N2CCCCC2)n1 | 9.92
26 | O=C(COC(=O)c1ccc(S(=O)(=O)N2CCCCC2)cc1)Nc1ccccc1 | 9.49
27 | c1ccc(C2=Nn3c(nnc3-c3n[nH]c4c3CCC4)SC2)cc1 | -10.2
28 | CN(C)S(=O)(=O)c1ccc(S(=O)(=O)N2CCN(CCC#N)CC2)cc1 | 2.89
29 | COc1ccc(C(C)=O)cc1CSc1nc2nc(C)cc(C)n2n1 | 0.532
30 | C=C1CCN([C@@H](CC(C)C)C(=O)Nc2nc3ccc(Cl)cc3s2)S(=O)(=O)c2ccccc21 | 7.6
31 | COc1ccc(CCNC(=O)c2cc(S(=O)(=O)N3CCC4(CC3)OCCO4)ccc2F)cc1OC | 8.01
32 | c1ccc(-c2ccccn2)nc1 | -1.1
33 | Cc1ccc2nc(N3CC(=O)Nc4ccccc43)nc(-c3ccccc3)c2c1 | 11.8
34 | CC(C)N1CCN(Cc2cccc(-n3cccn3)c2)CC1CCO (centres unmarked) | -7.17
35 | CC(NC(=O)Cn1cccc1C(=O)c1ccccc1)c1ccc2c(c1)OCCO2 (centres unmarked) | 13.9
36 | COCc1ccc(CN2CCc3c([nH]c4ccccc34)C2C(C)(C)C)o1 (centres unmarked) | 10
37 | CCCCNC(=O)CN1C(=O)NC(CCc2ccccc2)C1=O (centres unmarked) | 19.8
38 | CCOc1nc(-c2ccccc2)ccc1-c1noc(-c2cccnc2)n1 | 7.07

Row | SMILES | hERG current change (%, negative = inhibition) at 1uM [%]
39 | CC(=O)N1CCN(S(=O)(=O)c2cccc(C(=O)N(Cc3ccccc3)c3ccc(C)cc3)c2)CC1 | 1.66
40 | COCC(C)NC(=O)C1CC(=O)N(c2ccc(C)cc2)C1 (centres unmarked) | 17.1
41 | Cn1c(=O)c2c(nc(N3CCN(c4ccccn4)CC3)n2Cc2ccc(Cl)cc2Cl)n(C)c1=O | 1.62
42 | O=C(NCCc1ccccn1)c1ccc(NS(=O)(=O)c2ccc(F)cc2)cc1 | 8.99
43 | CCN(CC(=O)Nc1c(F)cccc1F)C(=O)c1cc(-c2cccs2)nn1-c1ccccc1 | 1.08
44 | CCOC(=O)c1ccc(OCC(=O)c2ccc(O)cc2O)cc1 | -6.35
45 | COc1cc(/C=C2/C(=O)N=C(N)N2C)cc(OC)c1OC | 5.88
46 | CCN(C(=O)CSc1nnc(-c2ccncc2)n1Cc1ccccc1)C1CCS(=O)(=O)C1 (centres unmarked) | 1.66
47 | CC1CCCCN1C(=O)c1ccc(S(=O)(=O)N2CCCCC2C)cc1 (centres unmarked) | 3.05
48 | COc1ccc(NC(=O)CSc2nc(N)c(C(=O)Nc3ccc(N(C)C)cc3)s2)cc1 | 5.56
49 | CCCCNC(=S)N1CCn2cccc2C1c1ccccc1 (centres unmarked) | 12.9
50 | CC1CN(Cc2cn(C)nc2-c2ccc(Oc3ccccc3)cc2)CCN1C (centres unmarked) | -14.4
51 | COC(=O)c1cccc(/C=N/NC(N)=S)c1O | 8.31
52 | CCn1ncc(Cl)c1C(=O)Nc1ccc2c(c1)CCC2 | 14.5
53 | COc1ccc(-c2cc(C(F)(F)F)nc(N3CCCCC3)n2)cc1OC | 9.98
54 | Cc1cc(C)cc(C(=O)N2CCN=C2c2ccccc2)c1 | 13.2
55 | S=c1sc2c(N3CCOCC3)ncnc2n1-c1ccccc1 | -2.13
56 | COC(CNC(=O)C(=O)Nc1cc2c3c(c1)CC(=O)N3CCC2)OC | 22.4
